Results: article PMC12136788
This is one part of the list.

T1: UNK ZnF1-6 (called full-length) (human, UniProt Q9C0B0 30-357)
T1 sequence: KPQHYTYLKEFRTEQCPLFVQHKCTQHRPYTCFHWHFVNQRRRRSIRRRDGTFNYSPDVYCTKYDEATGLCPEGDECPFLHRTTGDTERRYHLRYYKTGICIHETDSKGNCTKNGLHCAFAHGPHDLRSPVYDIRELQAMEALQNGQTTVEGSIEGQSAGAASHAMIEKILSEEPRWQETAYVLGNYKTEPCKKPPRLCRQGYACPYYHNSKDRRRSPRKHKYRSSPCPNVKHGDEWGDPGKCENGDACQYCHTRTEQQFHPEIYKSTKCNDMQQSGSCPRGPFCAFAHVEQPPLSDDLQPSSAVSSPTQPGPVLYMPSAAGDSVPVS

B1: chr19:45224777:45224913:-|CDS|ENSG00000283632|control|control|control (ssRNA)
RNA: GGGAGUUCUACAGUCCGACGAUCGCCGAGCGCCUGGCCCGGGUGGGGCCCCCAGAAAGCGAGCCGGCCCGGGAAGCAUCUGCUAGUGCUCUGGACCAUGUGACCCGGCUCUGCCACCGUGUCGUGGCCAACCUGCUGUUCCAGCAACAGAGGAUUGAGCAUCA
B2: chr14:70725571:70725672:-|3pUTR|ENSG00000006432|unk|total|mutant (ssRNA)
RNA: GGGAGUUCUACAGUCCGACGAUCUAUUGUCCGAAACGCAUUACCAAAUGCAUCUCUUCUGUCGGAUCAGCGUAUUCCCCGAUCCGGAAUUCAAAUUAAUGAAAAUUCACAUAUGAAAGGAAAAUCCAUUGCUAUUUCUGGAGACAACAGAGGAUUGAGCAUCA
B3: chr12:56416428:56416529:-|3pUTR|ENSG00000111602|msi1|FALSE|unique (ssRNA)
RNA: GGGAGUUCUACAGUCCGACGAUCAUGUUCUUACCCAUUCUUGGAAACGUCAGCUUUCUUGCUUCCUGUGCUUCCAGCCGAGGUAGGGCAAAGGUGAGAUUGAGAAAAUAGCCAUUCAGCUCAGGAAGGCUUCUAAGUAAAGGACAACAGAGGAUUGAGCAUCA
B4: ENSG00000124766:be:win_2351|3pUTR|ENSG00000124766|bound_else_gene|NA|bound_elsewhere_windowed (ssRNA)
RNA: GGGAGUUCUACAGUCCGACGAUCCAGACCCCGGAGGCGUGGAGGAGAGGAGACUGUUUGAUGUGGUACAGGGGCAGUCAGUGGAGGGCGAGUGGUUUCGGAAAAAAAAAAAGAAAAAAAGAAAAAAAAAGAAAAAAAAAAGAUCAACAGAGGAUUGAGCAUCA
B5: chr1:51356092:51356193:-|3pUTR|ENSG00000085832|unk|FALSE|unique (ssRNA)
RNA: GGGAGUUCUACAGUCCGACGAUCUUCAGAGAUAAGGAAAAAUAUUUUGCACAGAUUUACUCCACUAUGGAAAAGGGAUGCUGUAGGUUGAACCAUUAUAGCCUCAGAUUCGAUCUUUUCCUAACUAAAAAUAUUAAAGCCUCACAACAGAGGAUUGAGCAUCA
B6: chr21:43756582:43756683:+|3pUTR|ENSG00000160209|msi1|total|mutant (ssRNA)
RNA: GGGAGUUCUACAGUCCGACGAUCGCAUUCGAACUUUUGGUUCUUACUUUGCUGCUCGUUCCGUCCCUGGGGAUUUCAGAUCUCCGGCUGUUGUUUCACCGUAUGGGAGGGUUGAUGUGAGCUUGCUUGGAGACACACGGUGCACAACAGAGGAUUGAGCAUCA
B7: ENSG00000107863:be:win_1401|CDS|ENSG00000107863|bound_else_gene|NA|bound_elsewhere_windowed (ssRNA)
RNA: GGGAGUUCUACAGUCCGACGAUCGCUAAUGAAGUAUUGUCCAAGAAGUGCAUCUCAAGGAGCACUGACGUCUCCAUCUGUUAGUUUUAGUAAUCAUAGAACUCGUUCAUGGGAUUAUAUUGAGGGACAGGAUGAAACCUUAGACAACAGAGGAUUGAGCAUCA
B8: chr1:33300114:33300153:+|3pUTR|ENSG00000160094|msi1_unk|FALSE|overlapping (ssRNA)
RNA: GGGAGUUCUACAGUCCGACGAUCCCCUGCCCCCAGCCCCCACAGACACACCCCAAUCUGAAAGCCAUGCGUGUCGGUGUAUAUAGGAACCAUGUACAGAGCCCAGAGAAGCCCCCUACAUCCCCCCGGGAAAAAAAAGAAAACCAACAGAGGAUUGAGCAUCA
B9: ENSG00000071054:stop:overlap|stop_codon|ENSG00000071054|stop_codon|NA|stop_codon (ssRNA)
RNA: GGGAGUUCUACAGUCCGACGAUCCUGGUGGCAGCAGUCAGGUUUAUUUCAUGACCUUAGGCAGGACUUCUCUUCUGAGCUGGUAGAAGCAGUGUGAUCCAGGGAUUACUGGCCUCCAGAGUCUUCAAGAUCCUGAGAACUUGGCAACAGAGGAUUGAGCAUCA
B10: ENSG00000174780:stop:overlap|stop_codon|ENSG00000174780|stop_codon|NA|stop_codon (ssRNA)
RNA: GGGAGUUCUACAGUCCGACGAUCAAGCUGAAGGUUGGAAGUUUGUUAAACUUAUCUGUAAAUAUAACGUGCAUAUAACUUUGUAGAGUAUCUUCUAAAAUUGCAUUUGACUUCUGUGAAAUUAUUAAAUGGAAGUUAUUGAUGCAACAGAGGAUUGAGCAUCA
B11: chr7:73478266:73478367:-|CDS|ENSG00000009954|unk|total|mutant (ssRNA)
RNA: GGGAGUUCUACAGUCCGACGAUCGAGUGGCUCGCCACUCAAAGUGAAGAACUCAAAGAAUUCCAAAUCUCCUGAAGAACAUCCCGAAGAAAUGAUGAAGAUGAUGUCGCCCAAUAAGCUGCACACUAACUUUCACAUUCCUAACAACAGAGGAUUGAGCAUCA
B12: chr2:42682433:42682535:+|CDS|ENSG00000057935|unk|FALSE|unique (ssRNA)
RNA: GGGAGUUCUACAGUCCGACGAUCUCACGCUAUGGAUACAUUGUAUAGACACAGCUAUGAUUUGAGCAGUGCCAUUAGUGUCUUAGUACCACUCGGAGGACCUGUUUUAUGCAGAGAUGAAAUGGAGGAAUGGUCAGCCUCUGACAACAGAGGAUUGAGCAUCA
B13: chr6:122456482:122456612:-|CDS|ENSG00000111897|unk|FALSE|unique (ssRNA)
RNA: GGGAGUUCUACAGUCCGACGAUCUGCUUUGGUUUGGCUAUGUUCUAUCUUCUUCUCUCUUUACUAAUGAUCAAAGUGAAGAGUAGCAGUGAUCCUAGAGCUGCAGUGCACAAUGGGUAAGUUUUUAAAUAAGCUUCAAUAUAACAACAGAGGAUUGAGCAUCA
B14: ENSG00000187498:stop:overlap|stop_codon|ENSG00000187498|stop_codon|NA|stop_codon (ssRNA)
RNA: GGGAGUUCUACAGUCCGACGAUCAGGUGAACCGGGACCUCCUGGAUUGCCAGGCUCCGUGGGGUCUCCAGGAGUUCCAGGAAUAGGCCCCCCUGGAGCUAGGGGUCCCCCUGGAGGACAGGGACCACCGGGGUUGUCAGGCCCCAACAGAGGAUUGAGCAUCA
B15: chr5:96979339:96979440:+|CDS|ENSG00000113441|unk|total|mutant (ssRNA)
RNA: GGGAGUUCUACAGUCCGACGAUCGAGGAGGAUGAAGAGGAUUAUGAGUCAUCAGCAAAGCUGCUGGGCAUGUCCUUCAUGAACCGAAGCUCAGGCCUUCGGAACAGUGCAACUGGUUACAGGCAGAGCCCAGAUGGGGCUUGUCAACAGAGGAUUGAGCAUCA
B16: chr17:78107396:78113211:-|three_prime_utr|ENSG00000141524|control|control|control (ssRNA)
RNA: GGGAGUUCUACAGUCCGACGAUCUUGGGACAACCGAGGAGGCUGCGGCACCCCCUGCCCUGCUCACAGAUGAACAGGAUGCCUAGGGGGACGGCGAUGGGCCUCACGGGCCCGCCCAGCACCCUGAGACCACACUGUUGCCUCCAACAGAGGAUUGAGCAUCA
B17: ENSG00000160209:stop:overlap|stop_codon|ENSG00000160209|stop_codon|NA|stop_codon (ssRNA)
RNA: GGGAGUUCUACAGUCCGACGAUCCCUUGACCUCCUGGGCUGAAGCAAUCUUUCUGCCUCCACCUCCCGAGUGGCUGGGACUAUAGUUGUGCACCAGCACGCCCACCUCCUGCCCAGGGUUGUUACUGGGGUGGUCACGUGGGCCAACAGAGGAUUGAGCAUCA
B18: chr5:173316221:173316322:-|3pUTR|ENSG00000113739|msi1|FALSE|unique (ssRNA)
RNA: GGGAGUUCUACAGUCCGACGAUCAGUACUUUCAGUUUGGCGAGCCGUGAGGUCUCUGUCGAAACUACUCAACUCUGCCGUCCUAGCACAAAAGCAGCCAUAGACAACACACAAACGAGAGGGCUUGGCUCCCUUCCAGGAAGACAACAGAGGAUUGAGCAUCA
B19: chrX:106900062:106900748:-|three_prime_utr|ENSG00000147223|control|control|control (ssRNA)
RNA: GGGAGUUCUACAGUCCGACGAUCGAGGCAGCCAGAGUCUGAUUGGGGUUCAGUUUGUCUGGCAAGUUUUCACAGACAUCAGUUAGCCGGAAGUAUUAGUCCAGCAGAUAGAGCUUUCUGGACUGAAAAUUGGGUCAUCUAGCUCAACAGAGGAUUGAGCAUCA
B20: ENSG00000136451:be:win_2901|3pUTR|ENSG00000136451|bound_else_gene|NA|bound_elsewhere_windowed (ssRNA)
RNA: GGGAGUUCUACAGUCCGACGAUCUCUUUACACCAUCAUGCCACGCAUUGUUUUUAAAGCAUUGCGUUAAAAAAAAAAUUAACUAAACCAAGAUGCUGUGAUUUUUUAAGUUGCAAUAUGUUUUUGGUUUUUUUCAUUUUUUAACAACAGAGGAUUGAGCAUCA
B21: ENSG00000116560:stop:overlap|stop_codon|ENSG00000116560|stop_codon|NA|stop_codon (ssRNA)
RNA: GGGAGUUCUACAGUCCGACGAUCCAGCAGGAUAUGGUAGAGGGAGAGAAGAGUACGAAGGCCCAAACAAAAAACCCCGAUUUUAGAUGUGAUAUUUAGGCUUUCAUUCCAGUUUGUUUUGUUUUUUUGUUUAGAUACCAAUCUCAACAGAGGAUUGAGCAUCA
B22: ENSG00000198589:be:win_1601|CDS|ENSG00000198589|bound_else_gene|NA|bound_elsewhere_windowed (ssRNA)
RNA: GGGAGUUCUACAGUCCGACGAUCAGUCUUCCAAAUCUCAUGUUAGCAGAGCAGUACUUGAACUUUGCCUUGCAUUUUCAAAAUAUCUGAGUAAUCUGCAGAAUGGGAUGCCCCUGCUCAAGCAAUUGUGUGAUCACGUUCUUCCAACAGAGGAUUGAGCAUCA

target: T1, UNK ZnF1-6 (called full-length); assay: nsRBNS (natural sequence RNA bind-n-seq); RBNS binding buffer (assumed for nsRBNS): 25 mM Tris pH 7.5, 150 mM KCl, 3 mM MgCl2, 0.01% Triton X-100, 500 ug/ml BSA, 20 U/ml SUPERase-In, 4 C; UNK is unkempt and MSI1 is Musashi-1; names of the RNAs are library labels; protein concentration not given here; high values mean tight binding

Binder	binding signal [enrichment R]
B1	1.06
B2	0.223
B3	0.587
B4	1.36
B5	0.488
B6	0.696
B7	1.22
B8	0.882
B9	0.623
B10	0.733
B11	0.273
B12	0.747
B13	0.536
B14	0.745
B15	0.656
B16	0.752
B17	0.427
B18	1.21
B19	0.809
B20	0.398
B21	0.62
B22	0.296
